In paper PMC12136788 one finds binding signal data, which are given here for 22 molecules.

The other results are listed elsewhere or left out.

Sequences and labels used below:
T1: UNK ZnF1-3 (human, UniProt Q9C0B0 31-174)
T1 sequence: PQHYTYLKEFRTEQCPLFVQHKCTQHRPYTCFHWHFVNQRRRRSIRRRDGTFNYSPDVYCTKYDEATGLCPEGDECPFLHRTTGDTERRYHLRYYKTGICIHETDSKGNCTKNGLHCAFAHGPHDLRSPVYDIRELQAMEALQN

B1: chr10:36717261:36717262:+_ENSMUSG00000019777_ENSMUST00000019911|perfect_dup|FALSE|FALSE (ssRNA)
RNA: GGGAGUUCUACAGUCCGACGAUCCUGUUUUAUCUUUUCCAUAUAUUCUGGAGUGUUCUGGUUUGUCAUGUUUGAAGGACUAAUAUGCAGUUUGAAGUCUGGUCCAAAAUACUCAAAGUAAUCAUUAUAUGGCAACUCAUUGGGCAACAGAGGAUUGAGCAUCA
B2: chr2:9570881:9570882:+_ENSG00000119203_ENST00000238112|hu_mus|hu_hu_hu_mus_False|18_88 (ssRNA)
RNA: GGGAGUUCUACAGUCCGACGAUCACUUGUCUUCUGAAGGAACCAGGGCAGAGCUCCACAGUGAUCCAAAUGGAAAUGACUGAUCAACAGAAGGUCGAUCUCAGCUGGGUCGAUAAGAUCAAUAUAAGGAAGGGCAUCCAUUCCCAACAGAGGAUUGAGCAUCA
B3: 43694062_43694182_1162_3pUTR_ENSMUSG00000078716_ENSMUST00000107866|mouse|control|control (ssRNA)
RNA: GGGAGUUCUACAGUCCGACGAUCUAACCGCACACAGAGCUGGAAGCUGAUGGUCCUGCCAGGACCACGGGAUGGCGUCUCCACACGCACAUAGACCCAGUGGCCCCAGGGGGGCAAGGCCAACUCCAGCUGGCAUACUGAGGCCAACAGAGGAUUGAGCAUCA
B4: chr6:40197388:40197389:+_ENSMUSG00000057716_ENSMUST00000061740|mus_mus|motif|central (ssRNA)
RNA: GGGAGUUCUACAGUCCGACGAUCGCCUUGUCAGUUUGGAUGGCACCUCAGUUUGGGUGCUAGCCUCUAAGAUAGAUAGCGGUUUUGGGAUUCAUGGCCUUGAAGAUCAAGAGGAAAGGGACGAGAAUGGAAAGAGUCAAGAGUCAACAGAGGAUUGAGCAUCA
B5: chr18:34657717:34657718:-_ENSMUSG00000036501_ENSMUST00000040506|mus_hu|FALSE|FALSE (ssRNA)
RNA: GGGAGUUCUACAGUCCGACGAUCUCAUUGUCUGGAUGUCCUCCCUGCUGCAGCUCAUCAAGUGGAAUUCCAAAUAUUUUGUUAGCAAGAACGGAGUUGCAGUUACUCAAGGAAGGGGAGGAGCUCUUCCUCAUAUCUUUUUUGCAACAGAGGAUUGAGCAUCA
B6: chr1:66463027:66463028:+_ENSMUSG00000015222_ENSMUST00000114013|mus_mus|mus_mus_mus_hu_True|38_38 (ssRNA)
RNA: GGGAGUUCUACAGUCCGACGAUCUUUUCUUUCAGGAGUGGAAAUUCUGCCUCUCCCGGUUUUAAAAGGCUUUUCUUUUCUAUGUUUCUCAAGAGAUGGUCUCCGAGCUUCCUUUUCAGCUUUCUCCUCUUUAGGAAUAGUUUCCAACAGAGGAUUGAGCAUCA
B7: chr7:149068622:149068623:-_ENSMUSG00000025139_ENSMUST00000001950|mus_hu|mus_mus_mus_hu_False|78_98 (ssRNA)
RNA: GGGAGUUCUACAGUCCGACGAUCGUGAGGCCUCUGAGUGAGGUUCCUGGUCUGUCCUGUCUGCAGUUUGUUAAUAUCACGGAACAUACCAUCUAGAACGUUCCAGUCCCGCCUGACACCUUCAUUCCCAAUGGAGAAGAAAUCCAACAGAGGAUUGAGCAUCA
B8: 56886060_56886180_9655_3pUTR_ENSMUSG00000055296_ENSMUST00000068792|mouse|control|control (ssRNA)
RNA: GGGAGUUCUACAGUCCGACGAUCUUUCAGUGAUGUAAGCUGAAUAAACCCUUUCCUCCCCAGCUGCUUCUUGGUCAUGAUGUUUGUGCAGGAAUAGAAACCCUGACUAAGACAGAUUGGUACCAGGAAUGGGGUAUUCCUGUGCAACAGAGGAUUGAGCAUCA
B9: chr1:220276048:220276049:+_ENSG00000067704_ENST00000302637|hu_hu|hu_hu_hu_mus_True|38_38 (ssRNA)
RNA: GGGAGUUCUACAGUCCGACGAUCGCAAAUUGCCUGGUUGGCGGGAAUUGUCCAAGGCUGGGUGGUCCAAACUAAAACGCUAACAGGGGAUGAGGCAUCUAUAAGAGACUCCAACUUCGGAGGAGGUCUCAGGAGGGGGAAUCUCAACAGAGGAUUGAGCAUCA
B10: 89108257_89109511_2190_CDS_ENSMUSG00000069539_ENSMUST00000174252|mouse|control|control (ssRNA)
RNA: GGGAGUUCUACAGUCCGACGAUCACUUAGAAGGUCCGCUCCAAUGUUGUUAAAGACCUUAUCAAUCUGCUGACUUCCAGAAUGUGCAACUUUUGUCUCCUCAGAAGUGCUCAUUUGAUUCCCUAUGUCCAAAGACCUCUGCUGCAACAGAGGAUUGAGCAUCA
B11: chr1:39494564:39494565:+_ENSG00000168653_ENST00000372967|hu_hu|hu_hu_hu_mus_True|8_18 (ssRNA)
RNA: GGGAGUUCUACAGUCCGACGAUCAUGCAUUCGCCUCAUCGUUUUGUACCGAAGCAAGCACUCUUCGAAGUCAUCGAACUCUAUCUUGCACUCCUUUUUCGCCCGGGUCCCACCGAUUCCAUGUGCACAUUCUAUCCACUCUUUCAACAGAGGAUUGAGCAUCA
B12: chr4:57314706:57314707:+_ENSG00000128050_ENST00000264221|hu_mus|hu_hu_hu_mus_True|1_58 (ssRNA)
RNA: GGGAGUUCUACAGUCCGACGAUCCAGAAUUUCAAAAAUAGCUUGUGUGGCAUGACUCAUGAUGUCCACUUCAGUCUGGCCUAUAAGAAGGCCAGCAAAACAGAAUUUUGCAGCAAUGAGUUGCUCCUCAGACCACUGUGGGUCCAACAGAGGAUUGAGCAUCA
B13: chr7:118215947:118215948:-_ENSMUSG00000005610_ENSMUST00000162415|mus_hu|motif|central (ssRNA)
RNA: GGGAGUUCUACAGUCCGACGAUCGGUCCUUGCAAUAGACUGCCUCUGCUUGAGAACUUAUGAUGUAAUUAUUGCAUGCUGCGGAUAUACUAUCUAAACAUUAAAGAUACUCCUAAAAUAUUUGAUGGUAGACUAUGAUUAAGACAACAGAGGAUUGAGCAUCA
B14: chr7:30889366:30889367:+_ENSMUSG00000049421_ENSMUST00000108200|mus_mus|FALSE|FALSE (ssRNA)
RNA: GGGAGUUCUACAGUCCGACGAUCUGUCUGUGCCCAGGGGAAAUAAUUGUUUUCUAGGUUUCCUGAAUUUGUUUUUUAGUCUAUCUCUCUACAGAAAGCUGAGACUUAACUCACACGUCUUUCAUCCUGUGUCCUUAUCUGUGUCAACAGAGGAUUGAGCAUCA
B15: chr5:52541547:52541548:-_ENSMUSG00000029169_ENSMUST00000031061|mus_hu|motif|central (ssRNA)
RNA: GGGAGUUCUACAGUCCGACGAUCUACUGAGACAGAAGAUUGUGUCUACAUAAGCACAAGUUGUAACAUUUCACAACUUCGGAAAGGAAUGUCAACAAUUACAACGAUCAUGCAUACCAUGGUCGAUAAUCACAUUUUAGAAGCCAACAGAGGAUUGAGCAUCA
B16: chr3:57561359:57561360:-_ENSG00000168374_ENST00000303436|hu_hu|FALSE|FALSE (ssRNA)
RNA: GGGAGUUCUACAGUCCGACGAUCUUUAUCUGUCAUUUCACUGAUGGCCAUAGCAUUUGGCAAAUCCUGUUUGUUUGCAAAAAGUAGCAGCACUGCAUCUCUCAAUUCAUCUACCAGAAGCAUUUUCUGCAGCUCAUCUGCUACCAACAGAGGAUUGAGCAUCA
B17: chr2:179515052:179515053:+_ENSMUSG00000000305_ENSMUST00000000314|mus_hu|mus_mus_mus_hu_False|1_108 (ssRNA)
RNA: GGGAGUUCUACAGUCCGACGAUCGCUUUCCCGCGCAGUCACCGUGAACGCCACCUGCUCGGAGGGGACCUGCAGCUCCCGGGUGGCGAAGACUGUCCCAUCUGCCCCAACUUUGAAGUCCAUGCUGUUGGUCUCAUACUGCAUCAACAGAGGAUUGAGCAUCA
B18: chr7:141438946:141438947:+_ENSG00000106028_ENST00000265304|hu_mus|hu_hu_hu_mus_True|18_28 (ssRNA)
RNA: GGGAGUUCUACAGUCCGACGAUCGACGAAAUACCUGUAACACAGGUCUUCGAAACAUGGCUUCUGUUUUUCUUACAACCUAAUCUUUAGGCUUUUCCUAAAGGAAAAACCCGAGCAGCCCAGCCACUAAAUCAAGAAACUACACAACAGAGGAUUGAGCAUCA
B19: chr7:65705844:65705845:+_ENSG00000169902_ENST00000304842|hu_mus|hu_hu_hu_mus_False|8_58 (ssRNA)
RNA: GGGAGUUCUACAGUCCGACGAUCAAACGGAUCUUUGUUACAUAAAUAAGGUGCCGGCUCCCCAUGUUUAACAAUGAUUUCUAGUAAGAAGGCUUGCAUGGCAGAAUCUAGCACUUCAUCUGUGACACCAGCCUCAUCCAAGCGCAACAGAGGAUUGAGCAUCA
B20: chr10:33190432:33190433:-_ENSG00000150093_ENST00000302278|hu_mus|hu_hu_hu_mus_True|38_68 (ssRNA)
RNA: GGGAGUUCUACAGUCCGACGAUCUACAUUUUCCAAACCUGCAUGUGAAUAAAACCCUGGCCACAGAGCCCUAAAGCUACCCUACUGUGACUAAGAUAAUUGCUACUUGAGCUUGGUGUUGCAAAAUCCGCCUGAGUAGGAUUCCAACAGAGGAUUGAGCAUCA
B21: chrX:39613801:39613802:+_ENSMUSG00000025862_ENSMUST00000069619|mus_hu|FALSE|FALSE (ssRNA)
RNA: GGGAGUUCUACAGUCCGACGAUCCAAAUUUAAAGGUGGAUGGCUCUCCCCUUGCGGAUUAGGCUCUUUAAAAGCAAAUUCUAUGCCAUCUUUGUGUAGCAUGGCAAUGGCUUCUCUUGUUUUCAACUGAUCAAGUCCAAAAGUCAACAGAGGAUUGAGCAUCA
B22: 32743988_32750049_11792_CDS_ENSG00000115760_ENST00000421745|human|control|control (ssRNA)
RNA: GGGAGUUCUACAGUCCGACGAUCAUUUUCCGCUUUAACUUUUUCUUUCUCUUCAUGGUUUUUCUUUUCUUUGUCAUCUUUUUGUUCACUAAUUAAUUUAGCUGUGAUACUUGGAGUAUCUGACACUCUGUCAAGAACAUCUGACAACAGAGGAUUGAGCAUCA

The target of the experiment is T1, UNK ZnF1-3. The experiment in a line: nsRBNS (natural sequence RNA bind-n-seq); RBNS binding buffer (assumed for nsRBNS): 25 mM Tris pH 7.5, 150 mM KCl, 3 mM MgCl2, 0.01% Triton X-100, 500 ug/ml BSA, 20 U/ml SUPERase-In, 4 C; UNK is unkempt and MSI1 is Musashi-1; names of the RNAs are library labels; protein concentration not given here; high values mean tight binding.
On to B1, for which the binding signal was 0.887 enrichment R.

Consider B2, for which the binding signal was 1.24 enrichment R.

Molecule B3 returned a binding signal of 0.498 enrichment R.

For the molecule B4, the binding signal was 1.43 enrichment R.

Turning to B5, the binding signal worked out at 0.734 enrichment R.

Molecule B6 had a binding signal of 0.409 enrichment R.

With B7, the binding signal stood at 0.724 enrichment R.

The molecule B8 yielded a binding signal of 0.846 enrichment R.

With B9, the binding signal turned out to be 2.07 enrichment R.

As for B10, the binding signal stood at 0.661 enrichment R.

B11 returned a binding signal of 0.588 enrichment R.

As to B12, the binding signal turned out to be 0.694 enrichment R.

In turn, B13 yielded a binding signal of 0.896 enrichment R.

As to B14, the binding signal worked out at 0.487 enrichment R.

For B15, the binding signal worked out at 1.06 enrichment R.

Molecule B16 returned a binding signal of 0.674 enrichment R.

Take B17: the binding signal was determined as 0.785 enrichment R.

The molecule B18 gave a binding signal of 0.656 enrichment R.

Molecule B19 gave a binding signal of 0.878 enrichment R.

B20 had a binding signal of 0.744 enrichment R.

For the molecule B21, the binding signal stood at 0.91 enrichment R.

Take B22: the binding signal was determined as 0.312 enrichment R.
